# From PubChem BioAssay AID1468 (National Center for Advancing Translational Sciences (NCATS), 2008)
# In all, about 280,000 compounds went through this assay and about 1,100 (0.39%) were called active. Inconclusive results, whose numbers are uncertain, are shown with a selection of clear calls. Calls follow the shape of the dose curve; as a rule, active = well fitted inhibition curve with a large enough effect; inconclusive = small, poorly fitted or top-dose-only effect, or effect the other way; inactive = flat fitted curve, though single readings scatter. No potency is given beside an inconclusive call; the fits are too rough.
# Target: Microtubule-associated protein tau (Homo sapiens) (UniProt P10636)
# Assay: qHTS for Inhibitors of Tau Fibril Formation, Fluorescence Polarization; also: nearly all actives have a fitted effect of over 55% in size
# Conditions: K18 P301L tau heparin fibrillization, Alexa594 FP, 6 h; series mostly up to 57.7 µM; activity, negative = inhibition: at the top concentration
# In short: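 Read-out: fluorescence polarization of Alexa 594-labeled tau (0.24 uM), 555 nm excitation, 632 nm emission. Mixtures held 15 uM unlabeled K18 P301L, compound and 20 uM heparin, pH 7 acetate buffer, incubated 6 hr at 37 C.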
# % is scaled to controls: 0 for no effect and ±100 for the full control effect; potency is read from the fitted curve at half-maximal effect; tags tell the direction and shape of the fitted curve.
# UniProt P10636, sequence (P10636 whole entry, looked up): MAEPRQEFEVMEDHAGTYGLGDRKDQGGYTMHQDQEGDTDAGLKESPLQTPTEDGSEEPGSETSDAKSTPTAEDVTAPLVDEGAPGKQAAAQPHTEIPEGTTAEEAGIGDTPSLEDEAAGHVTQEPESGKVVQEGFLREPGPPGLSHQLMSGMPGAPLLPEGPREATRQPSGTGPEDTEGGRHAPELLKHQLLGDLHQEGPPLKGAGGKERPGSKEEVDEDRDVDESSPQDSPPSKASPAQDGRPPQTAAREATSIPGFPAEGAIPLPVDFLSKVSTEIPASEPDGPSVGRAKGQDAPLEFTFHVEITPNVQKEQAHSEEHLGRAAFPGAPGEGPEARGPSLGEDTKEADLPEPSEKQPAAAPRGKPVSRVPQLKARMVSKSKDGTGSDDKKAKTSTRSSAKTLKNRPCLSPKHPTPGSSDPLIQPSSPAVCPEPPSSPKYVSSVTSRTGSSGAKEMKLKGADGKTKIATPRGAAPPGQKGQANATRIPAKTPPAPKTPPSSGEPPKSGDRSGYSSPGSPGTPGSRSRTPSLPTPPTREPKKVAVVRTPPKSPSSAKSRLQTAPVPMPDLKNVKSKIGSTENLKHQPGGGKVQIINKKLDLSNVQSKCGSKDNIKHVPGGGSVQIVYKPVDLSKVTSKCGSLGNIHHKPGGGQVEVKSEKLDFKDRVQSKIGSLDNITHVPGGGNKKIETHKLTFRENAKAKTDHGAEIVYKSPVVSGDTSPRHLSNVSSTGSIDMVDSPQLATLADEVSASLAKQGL
SMILES,Potency,"activity, negative = inhibition"
COc1cc(/C=N/NC(=O)c2cccc([N+](=O)[O-])c2)ccc1OCc1ccccc1,"inconclusive [inhibitor, single point]",
CCOc1ccc(N2CC(NC(=O)/C=C\c3ccc4c(c3)OCO4)CC2=O)cc1 (stereo not drawn),"inconclusive [inhibitor, single point]",
C(=N\Nc1nc2ccccc2[nH]1)/C1CCCCC1,"inconclusive [inhibitor, single point]",
CCc1ccc(C(=O)c2cn(CC(=O)NC3CCCCC3)c3nc(C)ccc3c2=O)cc1,"inconclusive [inhibitor, partial curve]",
O=C(Nc1ccc(F)c(F)c1)c1cc(S(=O)(=O)NC2CCCCCC2)ccc1F,"inconclusive [inhibitor, partial curve, poor fit]",
Nc1nc(N2CCN(c3ccccc3)CC2)n[nH]1,"inconclusive [inhibitor, full curve, poor fit]",
C=CCOC(=O)C(C(=O)CC)C(NC(=O)OC)c1ccc(F)cc1 (stereo not drawn),,inactive: 3.63% [at 11.6 µM]
COCc1cc(O)c(O)c(O)c1-c1c(COC)cc(O)c(O)c1O,active: 6.31 µM,
CCOc1cc(-c2noc(N)c2C#N)cc(OCC)c1OCC,,inactive: -7.34%
COc1ccccc1OCCCn1cc(C#N)c2ccccc21,,inactive: -4.52%
COc1ccccc1NC(=O)Cn1c(SCC(=O)N(C)c2ccccc2)nc2ccccc21,,inactive: 4.78%
COC(=O)CN1C(=S)N(Cc2ccccc2)C(=O)C1CC(=O)Nc1ccc(Br)cc1 (stereo not drawn),"inconclusive [inhibitor, partial curve]",
C/C=C\C1=C(CO)C(=O)[C@@H]2OC2C1=O (stereo partly drawn),"inconclusive [inhibitor, partial curve]",
COc1ccc(NC(=O)/C(=C\c2ccc(OS(=O)(=O)c3ccc(C)cc3)cc2)NC(=O)c2ccccc2)cc1,"inconclusive [inhibitor, partial curve]",
O=C(NCCn1cc(SCc2ccccc2Cl)c2ccccc21)c1cccs1,"inconclusive [inhibitor, partial curve, poor fit]",
O=C(Nc1ccc(S(=O)(=O)N2CCCC2)cc1)C1COc2ccccc2O1 (stereo not drawn),"inconclusive [inhibitor, single point]",
CN(C)c1ccc(C2OC(=O)C(C)(C)C(=O)C2(C)C)cc1 (stereo not drawn),"inconclusive [inhibitor, single point]",
COc1ccc(S(=O)(=O)n2nc(-c3ccco3)nc2NCc2ccc(N(C)C)cc2)cc1,"inconclusive [activator, partial curve]",
Cc1nc(SCc2ccc(F)cc2)c2oc3ccccc3c2n1,"inconclusive [inhibitor, single point]",
CCCC(=O)C1=C(c2ccccc2)C(C#N)(C#N)C(C#N)=C1N,"inconclusive [inhibitor, single point]",
CC(C)c1ccc(NC(=O)CN2C(=O)COc3ccc(S(=O)(=O)N4CCCCC4)cc32)cc1,"inconclusive [inhibitor, single point]",
Cc1ccc2scc(N3CCc4ccccc4C3)c(=O)c2c1,"inconclusive [inhibitor, single point]",
C=COCCn1c(=N)n(CCC)c2ccccc21,active: 28.2 µM,

SMILES,Potency,"activity, negative = inhibition"
O=C(COc1ccccc1-c1ccccc1)NCCN1C(=O)S/C(=C\c2cccnc2)C1=O,"inconclusive [inhibitor, partial curve, poor fit]",
Cc1cc(NS(=O)(=O)c2ccc(NC(=O)Nc3cccc(Cl)c3)cc2)no1,"inconclusive [inhibitor, partial curve, poor fit]",
CN(c1cccc(NC(=O)CN(c2ccc(Cl)c(Cl)c2)S(=O)(=O)c2ccccc2)c1)S(C)(=O)=O,"inconclusive [inhibitor, partial curve, poor fit]",
Cc1nc2nc(SCC(=O)N3CCOCC3)nn2c(C)c1Cc1ccccc1,"inconclusive [inhibitor, single point]",
Cc1c(/C=N/NC(=O)c2cccs2)c2ccccc2n1Cc1ccccc1Cl,"inconclusive [activator, partial curve]",
Cc1ccc(C)n1-c1cccc(C(=O)O)c1,"inconclusive [inhibitor, single point]",
Cc1nc(-c2ccc(Cl)cc2)sc1C1(C)CC(c2cccc(F)c2)=NO1 (stereo not drawn),"inconclusive [inhibitor, single point]",
O=C(Nc1ccc2c(c1)nc1n2CCSC1)c1ccccc1,,inactive: -3.87%
Cn1nc(-c2ccc(Cl)cc2)nc2c(=O)n(C)c(=O)nc1-2,"inconclusive [inhibitor, partial curve]",
O=C(C1=C(O)C(=O)N(CCN2CCOCC2)C1c1ccccn1)c1cccs1 (stereo not drawn),,inactive: -4.75%
C(=C\c1nnc2c3ccccc3ncn12)/c1ccccc1,"inconclusive [inhibitor, partial curve, poor fit]",
NS(=O)(=O)c1ccc(NC(=O)COC(=O)c2c3c(nc4ccccc24)/C(=C\c2ccc4c(c2)OCO4)CCC3)cc1,"inconclusive [inhibitor, partial curve]",
C#CCSc1nc(-c2ccccc2)c2cc(Cl)ccc2n1,"inconclusive [inhibitor, single point]",
O=C(O)CSc1c(O)c2ccccc2[nH]c1=O,"inconclusive [inhibitor, single point]",
COc1cccc(NC(=O)Nc2cc(Cl)ccc2C)c1,"inconclusive [inhibitor, single point]",
Nn1c(Cc2cccc3ccccc23)n[nH]c1=S,,inactive: 0.615%
Cc1ccc(Nc2cc(C)c3c(O)cccc3n2)cc1C,"inconclusive [activator, partial curve, poor fit]",
O=c1c2c(nc3nc(Cc4ccccc4)[nH]n13)CCC2,,inactive: 3.8%
CCCN(CCC)CCNC(=O)c1sc2nc3n(c(=O)c2c1C)CCCCC3,,inactive: 0.484%
Cc1ccc(NS(=O)(=O)c2ccc3[nH]c4c(c3c2)CCCCCC4)cc1,"inconclusive [inhibitor, single point]",
N#Cc1ccc(NC2=NS(=O)(=O)c3ccccc32)cc1,"inconclusive [inhibitor, single point]",
CC(C)(C)CN1CCNC(=O)C1CC(=O)NCCN1CCCc2ccccc21 (stereo not drawn),"inconclusive [inhibitor, partial curve, poor fit]",
Cc1ccc(-c2nc3c(c(=O)[nH]c(=O)n3Cc3ccccc3)n2C)s1,,inactive: -7.95%

SMILES,Potency,"activity, negative = inhibition"
COc1ccc(NC(=O)Nc2nnc(-c3ccccc3SCc3ccccc3)s2)cc1,"inconclusive [inhibitor, partial curve]",
COc1ccc(NC(=O)CN2C(=O)C3(SCC(=O)N3c3ccccc3)c3ccccc32)cc1Cl (stereo not drawn),"inconclusive [inhibitor, single point]",
CCc1ccc(N2C(=O)CSC23C(=O)N(Cc2cccc(OC)c2)c2ccccc23)cc1 (stereo not drawn),,inactive: -5.34%
CCn1c(=NC(=O)c2ccc(S(=O)(=O)N3CCCC3)cc2)sc2cc(Br)ccc21,"inconclusive [inhibitor, single point]",
CC(C)NC(=O)/C(C#N)=C/c1cccc(NC(=O)c2ccccc2Cl)c1,,inactive: 2.14%
O=C(Nc1ccc(Br)cc1)c1cccc(C(=O)Nc2ccc(Br)cc2)c1,,inactive: -18.3%
C=CCNS(=O)(=O)c1nc(C)c(Cl)c(C)c1C#N,,inactive: 6.37%
CC(=O)[C@H]1[C@H](c2cccc(Cl)c2)C(C#N)(C#N)[C@@H]2c3ccccc3C=CN21,,inactive: -2.75%
COc1ccccc1NC(=O)c1ccc(NC(=O)COC(=O)C(C)C)cc1,,inactive: 1.33%
O=C(CN1C=NS(=O)(=O)c2ccc(C(F)(F)F)cc21)Nc1cccc(C(F)(F)F)c1,,inactive: -4.7%
COc1ccc(OC)c(NC(=O)CC2SC(=NCc3ccccc3)NC2=O)c1 (stereo not drawn),,inactive: -7.55%
Oc1ccc2c(c1)C1CCCC1(N1CCOCC1)O2 (stereo not drawn),"inconclusive [inhibitor, partial curve]",
COc1ccccc1N1CCN(C(=O)CN2C(=O)COc3ccc(S(=O)(=O)N4CCCC4)cc32)CC1,,inactive: 8.13%
Cc1ccc(-c2nc3ccccc3[nH]c2=O)cc1,,inactive: -0.895%
COC(=O)C1=C(C(=O)OC)[C@@H]2Nc3ccccc3[C@@]23C[C@@H](C(=O)OC)N(S(=O)(=O)c2ccc([N+](=O)[O-])cc2)C3=N1,"inconclusive [activator, single point]",
COc1ccc(C(=O)NCC(c2ccc(N(C)C)cc2)N2CCc3ccccc32)cc1 (stereo not drawn),"inconclusive [inhibitor, partial curve, poor fit]",
CCn1cc(CNC(=O)c2cccc([N+](=O)[O-])c2)cn1,,inactive: 3.88%
Cc1cc(C)c2sc(NC(=O)c3ccc(S(=O)(=O)N4CCOCC4)cc3)nc2c1,"inconclusive [inhibitor, partial curve]",
Cc1ccc2sc(NNC(=O)c3ccc4c(c3)OCCO4)nc2c1C,"inconclusive [inhibitor, single point]",
CS/C(=N\S(=O)(=O)c1cccs1)Nc1ccc(F)c(Cl)c1,"inconclusive [inhibitor, single point]",
Cc1ccc(S(=O)(=O)n2nc(-c3ccco3)nc2NCc2ccccc2Cl)cc1,"inconclusive [inhibitor, partial curve]",
CC(C)(C)c1[nH]nc2c1C(c1ccoc1)C(C#N)=C(N)O2 (stereo not drawn),,inactive: -7.46%
